Assay results as given in the supplement of paper PMC11369174, “Proteome-scale characterisation of motif-based interactome rewiring by disease mutations” (Molecular Systems Biology, 2024).
The list shows a part of the results. Read counts after selection give these values, which scatter widely.

T1: CHD1_tandem-chromo__O14646_268_443
T1 chain: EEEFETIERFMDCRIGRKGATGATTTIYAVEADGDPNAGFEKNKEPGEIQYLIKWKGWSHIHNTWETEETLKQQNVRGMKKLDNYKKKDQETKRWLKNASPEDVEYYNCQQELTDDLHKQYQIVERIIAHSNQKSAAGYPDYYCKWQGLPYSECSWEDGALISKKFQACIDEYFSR

T2: CLTC_Clathrin-propeller__Q00610_1_364
T2 chain: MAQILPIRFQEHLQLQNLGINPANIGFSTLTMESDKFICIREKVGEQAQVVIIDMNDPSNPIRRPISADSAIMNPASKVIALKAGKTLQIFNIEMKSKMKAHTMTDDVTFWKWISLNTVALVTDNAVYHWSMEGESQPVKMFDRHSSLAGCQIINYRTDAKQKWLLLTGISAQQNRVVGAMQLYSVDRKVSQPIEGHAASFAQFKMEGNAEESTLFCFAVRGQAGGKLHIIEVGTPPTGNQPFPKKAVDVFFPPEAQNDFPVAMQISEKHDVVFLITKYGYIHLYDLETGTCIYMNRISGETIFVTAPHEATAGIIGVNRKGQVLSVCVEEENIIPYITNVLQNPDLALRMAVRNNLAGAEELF

T3: GGA1_VHS__Q9UJY5_1_157
T3 chain: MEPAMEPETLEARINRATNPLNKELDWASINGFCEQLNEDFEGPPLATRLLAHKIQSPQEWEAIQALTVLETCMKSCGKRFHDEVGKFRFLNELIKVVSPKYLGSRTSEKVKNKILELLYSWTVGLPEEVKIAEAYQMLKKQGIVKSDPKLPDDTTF

T4: Bub1_TPR__O43683_1_150
T4 chain: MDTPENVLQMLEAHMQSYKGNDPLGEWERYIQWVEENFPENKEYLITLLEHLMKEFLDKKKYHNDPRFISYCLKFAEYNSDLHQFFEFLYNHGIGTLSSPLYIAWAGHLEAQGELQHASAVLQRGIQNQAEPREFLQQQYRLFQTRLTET

T5: EPHA3_Pkinase__P29320_606_947
T5 chain: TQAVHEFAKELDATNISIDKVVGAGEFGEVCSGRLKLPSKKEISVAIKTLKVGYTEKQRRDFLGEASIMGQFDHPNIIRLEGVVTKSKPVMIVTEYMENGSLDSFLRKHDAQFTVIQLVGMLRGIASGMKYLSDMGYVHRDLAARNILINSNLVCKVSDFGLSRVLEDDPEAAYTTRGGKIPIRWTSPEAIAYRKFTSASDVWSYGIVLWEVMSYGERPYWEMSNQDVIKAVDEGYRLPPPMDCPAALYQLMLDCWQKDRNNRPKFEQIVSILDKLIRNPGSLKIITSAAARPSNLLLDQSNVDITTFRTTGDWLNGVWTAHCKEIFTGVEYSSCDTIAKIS

T6: EPHB2_Pkinase__P29323_604_898
T6 chain: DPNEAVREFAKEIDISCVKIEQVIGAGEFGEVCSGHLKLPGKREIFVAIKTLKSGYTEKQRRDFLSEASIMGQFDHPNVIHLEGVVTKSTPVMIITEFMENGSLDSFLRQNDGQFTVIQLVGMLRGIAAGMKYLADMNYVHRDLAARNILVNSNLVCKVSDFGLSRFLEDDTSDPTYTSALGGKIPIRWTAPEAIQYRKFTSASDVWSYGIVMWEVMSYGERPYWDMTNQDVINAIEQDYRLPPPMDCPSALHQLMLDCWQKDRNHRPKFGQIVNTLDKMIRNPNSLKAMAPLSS


molecular target: BRD4_NET__O60885_601_683; assay: mean normalised NGS count of phage-displayed peptide after selection on bait (% of reads); baits are purified protein domains named by gene / domain / UniProt id / residues; peptides come from disordered regions of human proteins; higher = stronger enrichment / binding; settings: replicate selections in which the peptide was seen: 6
Sequence (chain, as listed by the source): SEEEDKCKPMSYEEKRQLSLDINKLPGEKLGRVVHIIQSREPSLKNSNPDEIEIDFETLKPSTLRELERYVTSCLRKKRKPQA

Binder | mean normalised NGS count
ITNILKRSGEQIWSVS [NALCN 167-182 wt] | 27.5
QFTTYLHKDYNNLWII [POMT2 372-387 mut Q9UKY4.V373F] | 8.71

Molecular target: T1, CHD1_tandem-chromo__O14646_268_443
Assay: as above
Settings: replicate selections in which the peptide was seen: 4

Binder | mean normalised NGS count
QRIRSTSTPNVHMVST [ARAF 208-223 wt] | 35.6

molecular target: BRD4_NET__O60885_601_683; assay: as above; settings: replicate selections in which the peptide was seen: 4

Binder | mean normalised NGS count
QVTTYLHKDYNNLWII [POMT2 372-387 wt] | 0.0829
QMEKIPLLRISSADQN [BRCA2 407-422 mut P51587.H415R] | 0.525

Molecular target: T2, CLTC_Clathrin-propeller__Q00610_1_364
Assay: as above
Settings: replicate selections in which the peptide was seen: 6

Binder | mean normalised NGS count
NLLSFEDSTTGGVQQK [WRN 316-331 wt] | 0.831
NLIDLYGNQGLPPPGL [MITF 260-275 wt] | 5.56
PVSGNLIDLAGNQGLP [MITF 256-271 mut O75030.Y265C] | 0.038
VTLINFWPVDSVPASS [DMD 3410-3425 mut P11532.A3421V] | 2.89
PVSGNLIDLYGNQGLP [MITF 256-271 wt] | 0.248
NLLSFEDLTTGGVQQK [WRN 316-331 mut Q14191.S323L] | 9.64
ANTLPVSGNLIDLAGN [MITF 252-267 mut O75030.Y265C] | 0.359
SNNLNLLSFEDLTTGG [WRN 312-327 mut Q14191.S323L] | 0.0574
DLLDFHQDLLAHAGIQ [RYR1 2030-2045 wt] | 3.2
METPVTLINFWPVDSV [DMD 3406-3421 mut P11532.A3421V] | 36.2
NLIDLAGNQGLPPPGL [MITF 260-275 mut O75030.Y265C] | 1.47
ANTLPVSGNLIDLYGN [MITF 252-267 wt] | 1.11
SNNLNLLSFEDSTTGG [WRN 312-327 wt] | 0.0773

Molecular target: T1, CHD1_tandem-chromo__O14646_268_443
Assay: as above
Settings: replicate selections in which the peptide was seen: 2

Binder | mean normalised NGS count
QRIRSTATPNVHMVST [ARAF 208-223 mut P10398.S214A] | 4.39
RALDFLSRLPSPPPVS [BRCA2 3269-3284 mut P51587.L3279S] | 0.0324

Molecular target: T2, CLTC_Clathrin-propeller__Q00610_1_364
Assay: as above
Settings: replicate selections in which the peptide was seen: 5

Binder | mean normalised NGS count
NLLDLEEIAKAPLSTV [LDLRAP1 211-226 mut Q5SW96.T218I] | 0.00483
LTEGLDLISMLTDDAI [DNAH11 3449-3464 mut Q96DT5.T3464I] | 25.1

Molecular target: T1, CHD1_tandem-chromo__O14646_268_443
Assay: as above
Settings: replicate selections in which the peptide was seen: 3

Binder | mean normalised NGS count
ASLIRGNSSNAALFST [RYR1 526-541 mut P21817.R533S] | 25.1

Molecular target: T2, CLTC_Clathrin-propeller__Q00610_1_364
Assay: as above
Settings: replicate selections in which the peptide was seen: 2

Binder | mean normalised NGS count
AGLPYAWNADTDLVSW [PQBP1 60-75 mut O60828.Y65C] | 0.0034

Molecular target: T3, GGA1_VHS__Q9UJY5_1_157
Assay: as above
Settings: replicate selections in which the peptide was seen: 3

Binder | mean normalised NGS count
AGLPYAWNADTDLVSW [PQBP1 60-75 mut O60828.Y65C] | 0.0451

Molecular target: T4, Bub1_TPR__O43683_1_150
Assay: as above
Settings: replicate selections in which the peptide was seen: 3

Binder | mean normalised NGS count
RQGGSHTLSSFLTFLA [TBXA2R 53-68 mut P21731.R60L] | 0.107

Same assay, conditions: replicate selections in which the peptide was seen: 5

Binder | mean normalised NGS count
LFEDLLRQMSDLRLQA [SPART 322-337 wt] | 83.1

molecular target: BRD4_NET__O60885_601_683; assay: as above; settings: replicate selections in which the peptide was seen: 3

Binder | mean normalised NGS count
WGEQLLRARAGQDISA [FA2H 45-60 mut Q7L5A8.G45W] | 0.0687

same assay, conditions: replicate selections in which the peptide was seen: 5

Binder | mean normalised NGS count
WARDRIQQGWTYGIQQ [RYR2 1007-1022 mut Q92736.R1013Q] | 3.29

Molecular target: T5, EPHA3_Pkinase__P29320_606_947
Assay: as above
Settings: replicate selections in which the peptide was seen: 2

Binder | mean normalised NGS count
WARDRIQQGWTYGIQQ [RYR2 1007-1022 mut Q92736.R1013Q] | 1.21

Molecular target: T6, EPHB2_Pkinase__P29323_604_898
Assay: as above
Settings: replicate selections in which the peptide was seen: 2

Binder | mean normalised NGS count
WARDRIQQGWTYGIQQ [RYR2 1007-1022 mut Q92736.R1013Q] | 0.183
